# Results taken from article PMC6018503.
# Amino acid sequences for entries named in this document (tags omitted).
# UniProt Q93ZX1: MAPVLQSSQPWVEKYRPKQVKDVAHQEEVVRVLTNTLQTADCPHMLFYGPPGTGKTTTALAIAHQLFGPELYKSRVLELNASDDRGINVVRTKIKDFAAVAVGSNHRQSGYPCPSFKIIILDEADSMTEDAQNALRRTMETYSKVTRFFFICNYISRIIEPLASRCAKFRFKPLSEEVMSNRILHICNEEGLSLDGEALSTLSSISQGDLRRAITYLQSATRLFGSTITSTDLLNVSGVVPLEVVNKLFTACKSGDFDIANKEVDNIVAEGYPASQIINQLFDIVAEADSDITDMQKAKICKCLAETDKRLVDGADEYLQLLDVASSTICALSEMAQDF
# UniProt Q9FXM3: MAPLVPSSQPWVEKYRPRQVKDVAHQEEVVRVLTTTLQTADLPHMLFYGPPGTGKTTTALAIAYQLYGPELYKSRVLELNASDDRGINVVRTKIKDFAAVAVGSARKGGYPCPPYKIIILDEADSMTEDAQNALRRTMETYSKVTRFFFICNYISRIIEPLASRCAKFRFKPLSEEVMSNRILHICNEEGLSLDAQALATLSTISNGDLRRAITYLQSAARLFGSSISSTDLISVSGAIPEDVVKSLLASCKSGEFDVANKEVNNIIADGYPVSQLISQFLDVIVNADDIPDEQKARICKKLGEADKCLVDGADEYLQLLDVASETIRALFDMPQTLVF
# These are yes or no findings as the source states them, for the method shown. For some of these results: Binding seen in cells or lysates may run through a third protein. Some entries that bind do so weakly or less than the wild type.
# T1: OsRFC4 (rice (Oryza sativa)) (UniProt Q7XRX1)
# T1 sequence: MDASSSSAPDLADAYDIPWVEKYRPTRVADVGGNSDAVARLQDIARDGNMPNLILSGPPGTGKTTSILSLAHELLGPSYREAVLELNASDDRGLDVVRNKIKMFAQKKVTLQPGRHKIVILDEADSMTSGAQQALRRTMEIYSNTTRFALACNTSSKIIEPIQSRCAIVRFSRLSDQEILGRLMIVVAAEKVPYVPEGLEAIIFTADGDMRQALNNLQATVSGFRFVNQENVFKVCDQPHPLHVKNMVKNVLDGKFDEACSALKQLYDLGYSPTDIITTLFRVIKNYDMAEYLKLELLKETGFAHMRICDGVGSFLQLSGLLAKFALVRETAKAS
# T2: OsRFC1 (rice (Oryza sativa)) (UniProt Q2R2B4)
# T2 sequence: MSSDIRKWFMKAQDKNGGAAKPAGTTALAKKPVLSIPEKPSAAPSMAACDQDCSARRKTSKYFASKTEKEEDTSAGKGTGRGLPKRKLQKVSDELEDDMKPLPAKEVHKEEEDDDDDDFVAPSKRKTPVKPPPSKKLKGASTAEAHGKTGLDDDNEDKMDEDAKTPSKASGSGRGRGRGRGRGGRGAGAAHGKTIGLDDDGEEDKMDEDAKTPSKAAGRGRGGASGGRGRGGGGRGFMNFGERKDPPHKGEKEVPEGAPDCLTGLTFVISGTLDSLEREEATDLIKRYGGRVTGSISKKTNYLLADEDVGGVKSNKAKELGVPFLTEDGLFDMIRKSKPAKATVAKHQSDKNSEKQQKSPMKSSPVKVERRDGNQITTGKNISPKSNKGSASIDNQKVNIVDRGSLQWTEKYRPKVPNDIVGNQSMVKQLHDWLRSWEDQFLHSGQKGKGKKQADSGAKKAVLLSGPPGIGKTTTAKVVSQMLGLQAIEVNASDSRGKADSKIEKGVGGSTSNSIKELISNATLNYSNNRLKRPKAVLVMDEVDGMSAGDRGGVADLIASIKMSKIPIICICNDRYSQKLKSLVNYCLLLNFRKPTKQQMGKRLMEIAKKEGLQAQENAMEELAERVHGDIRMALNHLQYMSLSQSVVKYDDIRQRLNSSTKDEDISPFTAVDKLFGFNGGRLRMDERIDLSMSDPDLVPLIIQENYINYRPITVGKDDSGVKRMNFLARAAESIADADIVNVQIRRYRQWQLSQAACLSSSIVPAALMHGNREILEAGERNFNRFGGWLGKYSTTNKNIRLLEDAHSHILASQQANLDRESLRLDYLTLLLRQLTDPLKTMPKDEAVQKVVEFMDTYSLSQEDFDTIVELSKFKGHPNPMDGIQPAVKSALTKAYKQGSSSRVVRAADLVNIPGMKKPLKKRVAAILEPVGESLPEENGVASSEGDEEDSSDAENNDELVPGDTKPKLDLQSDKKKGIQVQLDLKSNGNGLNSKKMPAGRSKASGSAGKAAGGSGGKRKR
# T3: AtRFC2 (Arabidopsis thaliana) (UniProt Q9CAM7)
# T3 sequence: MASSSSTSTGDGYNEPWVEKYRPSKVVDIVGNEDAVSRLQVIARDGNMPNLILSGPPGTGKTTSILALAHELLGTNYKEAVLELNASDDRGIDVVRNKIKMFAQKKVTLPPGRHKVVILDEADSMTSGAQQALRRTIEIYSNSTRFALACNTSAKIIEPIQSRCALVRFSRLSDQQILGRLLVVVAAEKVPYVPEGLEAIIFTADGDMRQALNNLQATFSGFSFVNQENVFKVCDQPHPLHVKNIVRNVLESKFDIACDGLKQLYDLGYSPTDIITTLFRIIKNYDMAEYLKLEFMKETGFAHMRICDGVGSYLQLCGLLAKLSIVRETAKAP
# T4: AtRFC1 (Arabidopsis thaliana) (UniProt Q9C587)
# T4 sequence: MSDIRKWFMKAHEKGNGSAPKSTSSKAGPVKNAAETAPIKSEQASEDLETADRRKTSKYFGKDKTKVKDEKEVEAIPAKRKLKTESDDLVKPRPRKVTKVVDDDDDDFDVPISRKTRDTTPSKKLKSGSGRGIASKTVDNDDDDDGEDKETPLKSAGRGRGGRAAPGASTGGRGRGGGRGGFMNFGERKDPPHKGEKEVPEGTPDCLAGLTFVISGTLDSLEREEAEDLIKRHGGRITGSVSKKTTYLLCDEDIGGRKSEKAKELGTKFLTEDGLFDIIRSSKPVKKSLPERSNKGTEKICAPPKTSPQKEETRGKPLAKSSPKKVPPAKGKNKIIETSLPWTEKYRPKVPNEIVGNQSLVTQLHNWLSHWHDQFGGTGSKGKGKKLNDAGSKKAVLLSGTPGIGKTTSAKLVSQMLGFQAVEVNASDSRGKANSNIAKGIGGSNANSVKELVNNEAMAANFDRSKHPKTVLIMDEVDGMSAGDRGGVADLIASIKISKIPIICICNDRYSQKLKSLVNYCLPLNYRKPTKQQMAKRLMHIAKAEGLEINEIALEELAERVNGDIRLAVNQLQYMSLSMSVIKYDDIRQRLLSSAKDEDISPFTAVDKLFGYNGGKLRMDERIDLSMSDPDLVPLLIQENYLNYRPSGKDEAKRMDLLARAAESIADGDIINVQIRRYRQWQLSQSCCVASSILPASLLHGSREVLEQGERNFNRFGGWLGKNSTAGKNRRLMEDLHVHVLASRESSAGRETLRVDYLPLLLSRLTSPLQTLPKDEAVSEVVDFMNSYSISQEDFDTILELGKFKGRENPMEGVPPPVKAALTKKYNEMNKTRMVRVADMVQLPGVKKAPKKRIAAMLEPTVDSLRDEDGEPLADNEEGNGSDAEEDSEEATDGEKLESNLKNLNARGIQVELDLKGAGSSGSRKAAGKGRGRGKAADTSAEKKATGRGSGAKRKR
# Tests used:
# [1] = biological target: AtRFC4 (Arabidopsis thaliana) (UniProt Q93ZX1); assay: two-hybrid; yeast two-hybrid; full-length ORFs in pGADT7 (AD) and pGBKT7 (BD); co-transformed strains spotted on SD-L-T and SD-L-T-H-A plates; empty AD or BD plasmids as negative controls
# [2] = biological target: AtRFC4 (Arabidopsis thaliana) (UniProt Q93ZX1); assay: split reporter; BiFC; YFP^N (aa 1-155) and YFP^C (aa 156-239) fusions (pCAMBIA-SPYNE, pCAMBIA-SPYCE) co-expressed in tobacco (Nicotiana benthamiana) leaf epidermal cells through Agrobacterium GV3101; confocal microscopy of YFP; only the two named fusions
# [3] = biological target: T1, OsRFC4 (rice (Oryza sativa)); assay: two-hybrid; yeast two-hybrid; full-length ORFs in pGADT7 (AD) and pGBKT7 (BD); co-transformed strains spotted on SD-L-T and SD-L-T-H-A plates; empty AD or BD plasmids as negative controls
# [4] = biological target: T2, OsRFC1 (rice (Oryza sativa)); assay: split reporter; BiFC; YFP^N (aa 1-155) and YFP^C (aa 156-239) fusions (pCAMBIA-SPYNE, pCAMBIA-SPYCE) co-expressed in tobacco (Nicotiana benthamiana) leaf epidermal cells through Agrobacterium GV3101; confocal microscopy of YFP; only the two named fusions
# [5] = biological target: T3, AtRFC2 (Arabidopsis thaliana); assay: as above
# [6] = biological target: OsRFC2 (rice (Oryza sativa)) (UniProt Q9FXM3); assay: as above
# [7] = biological target: T4, AtRFC1 (Arabidopsis thaliana); assay: split reporter; BiFC in tobacco leaf epidermal cells with truncated AtRFC proteins, pairs that include AtRFC1 or a truncated AtRFC1; whether the other small subunits were co-expressed is not said
Binder,binding [1],binding [2],binding [3],binding [4],binding [5],binding [6],binding [7]
"AtRFC2 (protein, UniProt Q9CAM7 1-333) MASSSSTSTGDGYNEPWVEKYRPSKVVDIVGNEDAVSRLQVIARDGNMPNLILSGPPGTGKTTSILALAHELLGTNYKEAVLELNASDDRGIDVVRNKIKMFAQKKVTLPPGRHKVVILDEADSMTSGAQQALRRTIEIYSNSTRFALACNTSAKIIEPIQSRCALVRFSRLSDQQILGRLLVVVAAEKVPYVPEGLEAIIFTADGDMRQALNNLQATFSGFSFVNQENVFKVCDQPHPLHVKNIVRNVLESKFDIACDGLKQLYDLGYSPTDIITTLFRIIKNYDMAEYLKLEFMKETGFAHMRICDGVGSYLQLCGLLAKLSIVRETAKAP",binds,binds,,,,,
"OsRFC3 (protein, UniProt Q6YZ54 1-361) MAGATAATPMDIDAAAPPPGAAAKGKAPLSSTPGGRAAPWVEKYRPQSLGDVAAHRDIVDTIDRLTNENRLPHLLLYGPPGTGKTSTILAVARKLYGSQYGNMILELNASDERGIDVVRQQIQDFASARSLSFGAKQSVKMVLLDEADAMTKDAQFALRRVIEKHTRSTRFALICNHVNKIIPALQSRCTRFRFAPLDGTHVRERLKHIIQSEGLDVDDGGLTALVRLSNGDMRKALNILQSTHMASKQITEEAVYLCTGNPMPKDIEQIAYWLLNESFSTSFKCISDMKMRKGLALVDIIREVTMFVFKIQMPSDVRIKLINDLADIEYRLSFACNDKLQLGALISTFTGARTAMVAAAH",,binds,binds,binds,binds,binds,
"AtRFC2 Δ314–333 (domain or fragment, UniProt Q9CAM7 1-313) MASSSSTSTGDGYNEPWVEKYRPSKVVDIVGNEDAVSRLQVIARDGNMPNLILSGPPGTGKTTSILALAHELLGTNYKEAVLELNASDDRGIDVVRNKIKMFAQKKVTLPPGRHKVVILDEADSMTSGAQQALRRTIEIYSNSTRFALACNTSAKIIEPIQSRCALVRFSRLSDQQILGRLLVVVAAEKVPYVPEGLEAIIFTADGDMRQALNNLQATFSGFSFVNQENVFKVCDQPHPLHVKNIVRNVLESKFDIACDGLKQLYDLGYSPTDIITTLFRIIKNYDMAEYLKLEFMKETGFAHMRICDGVGSY",,binds,,,,,no binding
"AtRFC2 Δ294–333 (domain or fragment, UniProt Q9CAM7 1-293) MASSSSTSTGDGYNEPWVEKYRPSKVVDIVGNEDAVSRLQVIARDGNMPNLILSGPPGTGKTTSILALAHELLGTNYKEAVLELNASDDRGIDVVRNKIKMFAQKKVTLPPGRHKVVILDEADSMTSGAQQALRRTIEIYSNSTRFALACNTSAKIIEPIQSRCALVRFSRLSDQQILGRLLVVVAAEKVPYVPEGLEAIIFTADGDMRQALNNLQATFSGFSFVNQENVFKVCDQPHPLHVKNIVRNVLESKFDIACDGLKQLYDLGYSPTDIITTLFRIIKNYDMAEYLKL",,no binding,,,,,no binding
"AtRFC5 Δ335–354 (domain or fragment, UniProt Q8VXX4 1-334) MLWVDKYRPKSLDKVIVHEDIAQKLKKLVSEQDCPHLLFYGPSGSGKKTLIMALLKQIYGASAEKVKVENRAWKVDAGSRTIDLELTTLSSTNHVELTPSDAGFQDRYIVQEIIKEMAKNRPIDTKGKKGYKVLVLNEVDKLSREAQHSLRRTMEKYSSSCRLILCCNSSSKVTEAIKSRCLNVRINAPSQEEIVKVLEFVAKKESLQLPQGFAARIAEKSNRSLRRAILSLETCRVQNYPFTGNQVISPMDWEEYVAEIATDMMKEQSPKKLFQVRGKVYELLVNCIPPEVILKRLLHELLKKLDSELKLEVCHWAAYYEHRMRLGQKAIFHI",,no binding,,,,,no binding
